Source: PubChem BioAssay AID1345083 (National Center for Advancing Translational Sciences (NCATS), 2018)
Hit rate of the full screen: of about 94,000 compounds, about 6,200 (6.6%) were called active. The inconclusive results got no clear call from the source; some entries with a clear call stand among them for comparison. The call rests on the fitted dose curve; in most records, active means well fitted inhibition curve with a large enough effect; inconclusive means small, poorly fitted or top-dose-only effect; inactive means flat fitted curve, though single readings scatter. A potency beside an inconclusive call is a rough fit, not a confirmed value.
On the % scale 0 is the no-effect control and ±100 the full control effect; potency means the concentration at half of the fitted maximal effect; tags describe the fitted curve by direction and shape.

Experiment: Cytotoxic Profiling in HEK 293 Cell Line of Diverse Libraries Using Quantitative High-Throughput Screening; further: nearly all actives have a fitted effect of over 60% in size
Settings: HEK 293 viability, ATP luminescence (CellTiter-Glo), 48-72 h; activity change, negative = cytotoxicity: at 115 µM (top of the series) unless noted; series mostly up to 115 µM
In short: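 Viability of HEK 293 cells, plated at 250 cells/well, was judged by cellular ATP after compound treatment for 48 or 72 hr. Luminescence was imaged 10 min after CellTiter-Glo addition at room temperature.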
In the case of `O=C(c1ccncc1)N1CCCCC1c1nc(CCOc2ccc(F)cc2)no1` (stereo not drawn), the Potency is reported as inconclusive: 50.1 µM [inhibitor, partial curve, poor fit]. In the case of `Cc1ccccc1OCc1nc(C2CN(C(=O)Cc3ccsc3)C2)no1`, the Potency is reported as inconclusive: 56.2 µM [inhibitor, partial curve, poor fit]. In the case of `CCc1noc(-c2ccn3c(CNC(=O)c4cccc5[nH]ccc45)nnc3c2)n1`, the Potency is reported as inconclusive: 89.1 µM [inhibitor, single point]. With `COc1ccc([C@H]2C[C@@H](O)[C@@H](O)[C@@H]2NS(C)(=O)=O)cc1` the “activity change, negative = cytotoxicity” value was inactive: -12.1% [at 172 µM]. In the case of `COC(=O)[C@@H]1Cc2ncn(Cc3ccc(OC)cc3)c2CN1CCCc1ccccc1`, the Potency is reported as inconclusive: 11.2 µM [inhibitor, full curve, poor fit]. With `O=C1NCc2ccccc2CC12CCN(Cc1ccc(F)cc1F)C2` (stereo not drawn) the “activity change, negative = cytotoxicity” value was inactive: -25.4%. In the case of `CC1(c2noc(-c3ccncc3)n2)CCN(C(=O)CCc2cc(Cl)no2)CC1`, the Potency is reported as inconclusive: 63.1 µM [inhibitor, partial curve, poor fit]. In the case of `O=c1c2nc(NCc3ccccc3)ccc2ncn1Cc1ccccn1`, the Potency is reported as inconclusive: 70.8 µM [inhibitor, partial curve, poor fit]. With `O=S(=O)(N1CCCC1)N1CCOC(Cc2cccc(C(F)(F)F)c2)C1` (stereo not drawn) the Potency was inconclusive: 79.4 µM [inhibitor, partial curve]. In the case of `COc1cccc(-c2nc(C3CC(=O)N(C4CCCCC4)C3)no2)c1` (stereo not drawn), the Potency is reported as inconclusive: 89.1 µM [inhibitor, single point]. With `COc1ccc(-c2cc(C(=O)NCC3CC3)c3c(C4CCNC4)noc3n2)cc1` (stereo not drawn) the Potency was inconclusive: 56.2 µM [inhibitor, partial curve, poor fit]. With `COc1ccc(CN2Cc3cc(NC(=O)Cc4ccccc4)ccc3OC(C)C2=O)cc1` (stereo not drawn) the Potency was inconclusive: 56.2 µM [inhibitor, partial curve, poor fit]. In the case of `CCCN(CC1CC1)C(=O)CCC1CCCN(S(=O)(=O)c2ccc(C)cc2)C1` (stereo not drawn), the Potency is reported as active: 39.8 µM. With `Cc1ccc(C)c(C(=O)N2CCC3(CC2)N=C(c2ccc(Cl)cc2)NO3)c1` the Potency was inconclusive: 35.5 µM [inhibitor, partial curve, poor fit]. For `O=C1N(Cc2ccc(F)cc2)CCCC12CCN(CC1CCCC1)C2` (stereo not drawn), the Potency was inconclusive: 70.8 µM [inhibitor, partial curve, poor fit]. With `O=C(c1ccccn1)N1CC(Oc2ccc(-c3noc(C4CC4)n3)cc2)C1` the Potency was inconclusive: 50.1 µM [inhibitor, partial curve, poor fit]. With `Cc1ccc(C(=O)Nc2cc(C3CC3)nn2-c2ccccc2)cc1` the Potency was inconclusive: 89.1 µM [inhibitor, partial curve]. With `COc1cccc(CC(=O)N2CCCC(c3nc(CCOCC4CCCC4)no3)C2)c1` (stereo not drawn) the Potency was inconclusive: 50.1 µM [inhibitor, partial curve, poor fit]. In the case of `O=C(c1ccc(Br)o1)N1CCCN(c2cc(-c3ccc(Cl)cc3)[nH]n2)CC1`, the Potency is reported as inconclusive: 44.7 µM [inhibitor, partial curve, poor fit]. With `COc1cccc(CN2Cc3nc(Nc4cccc(F)c4)ccc3OCC2=O)c1` the Potency was active: 89.1 µM. For `COc1ccc(-c2cc(N3CCCN(C(=O)c4ccc(OC)c(F)c4)CC3)n[nH]2)cc1`, the Potency was inconclusive: 50.1 µM [inhibitor, partial curve, poor fit]. In the case of `COC(=O)CO[C@@H]1CO[C@H]2[C@@H]1OC[C@@H]2NC(=O)Nc1cccc(C(F)(F)F)c1`, the Potency is reported as inconclusive: 126 µM [inhibitor, single point]. For `CCn1cc(CN2CCN(C(=O)c3ccsc3)CC2)ccc1=O`, the “activity change, negative = cytotoxicity” value was inactive: -16.7%. For `O=C(NCCCc1ccccc1)c1ccc2nnc(-c3ccc(Cl)cc3)n2c1`, the Potency was inconclusive: 31.6 µM [inhibitor, partial curve, poor fit]. For `COc1ccc(-c2ccnc3nc(C4CCCO4)nn23)c(F)c1` (stereo not drawn), the “activity change, negative = cytotoxicity” value was inactive: 4.15%. For `O=C(c1n[nH]c2c1CCCCCC2)N1CCc2nc3cc(-c4ccccc4)[nH]n3c(=O)c2C1`, the Potency was inconclusive: 89.1 µM [inhibitor, single point]. With `O=C([C@@H]1C[C@H](Oc2ccccc2)CN1C(=O)c1ccccn1)N1CCOCC1` the “outcome” value was “inactive”. With `CCC(=O)N1CCN(c2nc3c(s2)CC(C(=O)N2CCC(C)CC2)CC3)CC1` (stereo not drawn) the Potency was inconclusive: 50.1 µM [inhibitor, partial curve, poor fit]. With `Cc1cc(C)cc(-c2ccc(CN3CCCC3C(=O)NCc3ccc(C(F)(F)F)cc3)cc2)c1` (stereo not drawn) the Potency was active: 39.8 µM. With `COc1ccc(CNC(=O)[C@H]2CNC[C@H](C(=O)N3CCCC3)C2)c(F)c1F` the “activity change, negative = cytotoxicity” value was inactive: -1.18%. In the case of `CC(=O)NC1(C)CCCN(Cc2cc(-c3c(C)noc3C)cs2)C1` (stereo not drawn), the Potency is reported as inconclusive: 100 µM [inhibitor, partial curve]. In the case of `O=C(Nc1ccccc1)N1CCC(c2nc(CCOc3ccc(F)cc3)no2)C1` (stereo not drawn), the Potency is reported as inconclusive: 50.1 µM [inhibitor, partial curve, poor fit]. In the case of `CC(C)c1ccc(-c2nc(C3CC(=O)N(c4ccc(F)c(Cl)c4)C3)no2)cc1` (stereo not drawn), the Potency is reported as inconclusive: 44.7 µM [inhibitor, partial curve, poor fit]. For `N#Cc1ccccc1CN1C[C@@H](CO)[C@H](NC(=O)c2ccccc2)C1`, the “activity change, negative = cytotoxicity” value was inactive: -35.6%. For `Cn1ncc2c(C(=O)NCCCc3ccccc3)cc(-c3ccccc3F)nc21`, the Potency was inconclusive: 44.7 µM [inhibitor, partial curve, poor fit]. In the case of `COc1ccc2cc(C(=O)N3CCN4CCS(=O)(=O)N(C5CC5)C(=O)C4C3)[nH]c2c1` (stereo not drawn), the Potency is reported as inconclusive: 17.8 µM [inhibitor, single point]. In the case of `COc1ccc(C2(C(=O)N(C)Cc3ccc(F)cc3)CCOCC2)cc1`, the Potency is reported as inconclusive: 63.1 µM [inhibitor, partial curve, poor fit]. For `O=C(NCc1nnc2ccc(-c3ccccc3)nn12)c1ccccc1F`, the Potency was inconclusive: 89.1 µM [inhibitor, single point]. With `CCCCN1CCN(c2nc(-c3ccccc3)nc3c2CCNC3)CC1=O` the Potency was active: 79.4 µM. In the case of `CC1(C(=O)NC2CCOCC2)CCc2cnc(Nc3ccccc3)nc21` (stereo not drawn), the Potency is reported as active: 100 µM. With `COc1cc(C)c2c(c1C)C[C@H]([C@H](C)C(=O)NC1CCCC1)CC2` the Potency was active: 39.8 µM. In the case of `CN(C)c1nccnc1OC1CCN(C(=O)C2CCOCC2)C1` (stereo not drawn), the “activity change, negative = cytotoxicity” value is reported as inactive: 9.4%. With `COc1cccc(C(=O)N2CCCN(c3cc(-c4ccc(Cl)cc4)[nH]n3)CC2)c1` the Potency was inconclusive: 50.1 µM [inhibitor, partial curve, poor fit]. With `O=C(NCc1nnc2cc(-c3nc(C4CC4)no3)ccn12)C1CC1` the Potency was inconclusive: 3.55 µM [inhibitor, full curve, poor fit]. In the case of `CNCC(=O)N1CCCC(c2cc(N3CCOCC3)nc(C)n2)C1` (stereo not drawn), the “activity change, negative = cytotoxicity” value is reported as inactive: -1.93%. In the case of `COC1CN(c2cccc(F)c2)C12CCN(C(=O)c1ccco1)CC2` (stereo not drawn), the “outcome” value is reported as “inactive”. In the case of `CNC(=O)[C@H]1CN(C(=O)OCC(C)C)[C@]2(C)C(=O)N(CCOC)c3ccccc3[C@H]12`, the Potency is reported as inconclusive: 44.7 µM [inhibitor, single point]. For `C1=CC[C@H]2CN(c3nccc(-c4ccccn4)n3)C[C@H]2C1`, the Potency was active: 44.7 µM. For `COCCC(=O)N1CCC2(CC1)CC(CCOc1ccncc1)CCO2` (stereo not drawn), the Potency was inconclusive: 50.1 µM [inhibitor, partial curve, poor fit]. For `Cc1oc(-c2cccs2)nc1CN1CCOC(Cc2ccccc2)C1` (stereo not drawn), the Potency was inconclusive: 39.8 µM [inhibitor, full curve, poor fit]. For `Cc1noc(C)c1[S+](=O)([O-])N1CCC(C(=O)N2CCC3(CC2)CC(=O)Nc2ccccc2O3)CC1`, the Potency was inconclusive: 56.2 µM [inhibitor, partial curve, poor fit]. For `c1ccc2c(c1)CCC(N1CCN(Cc3cc4n(n3)CCCNC4)CC1)C2` (stereo not drawn), the Potency was inconclusive: 28.2 µM [inhibitor, single point]. With `O=c1n(-c2ccc(Cl)cc2)nc2n1CCN(Cc1cccnc1)C2` the Potency was inconclusive: 112 µM [inhibitor, single point]. With `CCc1cccc(NC(=O)C2(C)CCCCC(=O)N2)c1` (stereo not drawn) the “activity change, negative = cytotoxicity” value was inactive: -14%. With `O=C(CCC1CCN(S(=O)(=O)N2CCCC2)CC1)Nc1ccccc1Cl` the Potency was inconclusive: 39.8 µM [inhibitor, partial curve, poor fit]. In the case of `CC(C)NC(=O)NC1CCN(c2ccc3nnc(-c4ccccc4)n3n2)C1` (stereo not drawn), the “activity change, negative = cytotoxicity” value is reported as inactive: -25.3%. With `COCc1noc([C@@H]2CC(F)(F)CN2C(=O)CC(C)(C)C)n1` the Potency was inconclusive: 89.1 µM [inhibitor, partial curve, poor fit]. For `O=C1CC2(CCN(C(=O)c3ccc4c(c3)OCO4)CC2)Oc2ccccc21`, the Potency was inconclusive: 79.4 µM [inhibitor, single point]. For `COc1ncccc1-c1nccn2c(C3CN(Cc4ccccc4O)C3)ncc12`, the Potency was inconclusive: 112 µM [inhibitor, partial curve]. In the case of `COc1cccc(C(=O)Nc2ccc3c(c2)CN(Cc2ccccc2F)C(=O)CO3)c1`, the Potency is reported as inconclusive: 79.4 µM [inhibitor, partial curve]. In the case of `N#Cc1ccc(C(=O)Nc2ccc([C@@H](O)[C@H]3COCC(=O)N3Cc3ccc(F)cc3)cc2)cc1`, the Potency is reported as inconclusive: 50.1 µM [inhibitor, partial curve, poor fit]. In the case of `O=C1CCN(Cc2ccncc2)CCCC(C(=O)NCCc2c[nH]c3ccccc23)CCN1` (stereo not drawn), the “outcome” value is reported as “inactive”. With `O=C(NCc1ccccc1)c1ccccc1OC1CN(Cc2ccc(F)cc2)C1` the Potency was inconclusive: 20 µM [inhibitor, partial curve, poor fit].
